Most values come without repeats; read them as rough.
Tests used:
CHO-K1 [1] = assay: micronucleus frequency (% of nucleated events); higher = more micronuclei (genotoxic)
CHO-K1 [2] = assay: hypodiploid nuclei frequency (% of nucleated events); higher = more hypodiploid events (aneugenic)
CHO-K1 [3] = assay: relative survival (nuclei to bead ratio vs DMSO control) (% of vehicle control); higher = more surviving cells
Protocol: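 Flow-cytometric in vitro micronucleus assay (Litron MicroFlow) in CHO-K1 cells in 96-well plates, 19 concentrations (4.5-200 µM, n=1 per concentration). Without S9, cells were exposed for 24 h and sampled at 48 h. With Aroclor 1254-induced rat liver S9, cells were exposed for 3-4 h and sampled at 27-28 h. Read-outs are %MN and %hypodiploid nuclei relative to nucleated events, and relative survival as the nuclei-to-bead ratio versus the 1% DMSO vehicle control (x100).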
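Wherever hypodiploid nuclei frequency (% of nucleated events) is given: hypodiploid nuclei gated on a flow cytometer with 488 nm excitation after SYTOX Green staining, cultures at 37 °C, positive controls vinblastine without S9 and cyclophosphamide with S9.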
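Wherever micronucleus frequency (% of nucleated events) is given: cells lysed with nuclei stained by SYTOX Green, then micronucleus-gated events counted against nucleated events by flow cytometry with 488 nm excitation.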
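Wherever relative survival (nuclei to bead ratio vs DMSO control) is given: Lysed-cell nuclei stained with SYTOX Green and counted against counting beads by flow cytometry at 488 nm excitation, with vinblastine (no S9) and cyclophosphamide (plus S9) as positive controls.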

ClC1=C(Cl)C2(Cl)C3C(Cl)C(Cl)CC3C1(Cl)C2(Cl)Cl (stereo unspecified) [Chlordane]
Details	hypodiploid nuclei frequency, CHO-K1 [2] [%]	micronucleus frequency, CHO-K1 [1] [%]	relative survival, CHO-K1 [3]
concentration: 4.5 (µM), S9 metabolic activation: with S9, exposure time: 3-4 hours	0.08	1.42	99
concentration: 4.5 (µM), S9 metabolic activation: without S9, exposure time: 24 hours	0.64	2.04	89.9
concentration: 5.63 (µM), S9 metabolic activation: with S9, exposure time: 3-4 hours	0.24	1.22	98.2
concentration: 5.63 (µM), S9 metabolic activation: without S9, exposure time: 24 hours	0.54	2.16	80.5
concentration: 7.04 (µM), S9 metabolic activation: with S9, exposure time: 3-4 hours	0.2	1.44	85
concentration: 7.04 (µM), S9 metabolic activation: without S9, exposure time: 24 hours	0.8	1.94	76.3
concentration: 8.8 (µM), S9 metabolic activation: with S9, exposure time: 3-4 hours	0.16	1.24	89.7
concentration: 8.8 (µM), S9 metabolic activation: without S9, exposure time: 24 hours	0.7	1.54	82.1
concentration: 11 (µM), S9 metabolic activation: with S9, exposure time: 3-4 hours	0.26	1.64	77.7
concentration: 11 (µM), S9 metabolic activation: without S9, exposure time: 24 hours	0.8	2.1	66.3
concentration: 13.7 (µM), S9 metabolic activation: with S9, exposure time: 3-4 hours	0.2	1.44	83.3
concentration: 13.7 (µM), S9 metabolic activation: without S9, exposure time: 24 hours	1.08	1.9	88.5
concentration: 17.2 (µM), S9 metabolic activation: with S9, exposure time: 3-4 hours	0.23	1.1	63.8
concentration: 17.2 (µM), S9 metabolic activation: without S9, exposure time: 24 hours	0.82	2.06	66.8
concentration: 21.5 (µM), S9 metabolic activation: with S9, exposure time: 3-4 hours	0.54	2.06	77.1
concentration: 21.5 (µM), S9 metabolic activation: without S9, exposure time: 24 hours	0.8	2.38	77
concentration: 26.8 (µM), S9 metabolic activation: with S9, exposure time: 3-4 hours	0.06	1.14	112
concentration: 26.8 (µM), S9 metabolic activation: without S9, exposure time: 24 hours	0.5	1.92	79.7
concentration: 33.6 (µM), S9 metabolic activation: with S9, exposure time: 3-4 hours	0.12	1.9	104
concentration: 33.6 (µM), S9 metabolic activation: without S9, exposure time: 24 hours	0.76	1.9	82.1
concentration: 41.9 (µM), S9 metabolic activation: with S9, exposure time: 3-4 hours	0.12	1.14	97
concentration: 41.9 (µM), S9 metabolic activation: without S9, exposure time: 24 hours	0.88	1.92	64.1
concentration: 52.4 (µM), S9 metabolic activation: with S9, exposure time: 3-4 hours	0.14	0.86	108
concentration: 52.4 (µM), S9 metabolic activation: without S9, exposure time: 24 hours	1	2.4	80.9
concentration: 65.5 (µM), S9 metabolic activation: with S9, exposure time: 3-4 hours	0.26	1.1	69.9
concentration: 65.5 (µM), S9 metabolic activation: without S9, exposure time: 24 hours	1.48	2.34	57.9
concentration: 81.9 (µM), S9 metabolic activation: with S9, exposure time: 3-4 hours	0.19	0.93	63.4
concentration: 81.9 (µM), S9 metabolic activation: without S9, exposure time: 24 hours	1.94	2.22	50.6
concentration: 102 (µM), S9 metabolic activation: with S9, exposure time: 3-4 hours	0.3	0.99	51.2
concentration: 102 (µM), S9 metabolic activation: without S9, exposure time: 24 hours	1.32	2.52	44.7
concentration: 128 (µM), S9 metabolic activation: with S9, exposure time: 3-4 hours	0.41	1.94	46.6
concentration: 160 (µM), S9 metabolic activation: with S9, exposure time: 3-4 hours	–	–	38
concentration: 200 (µM), S9 metabolic activation: with S9, exposure time: 3-4 hours	–	–	16

CC(C)=CCCC(C)CCO (stereo unspecified) [Citronellol]
Details	hypodiploid nuclei frequency, CHO-K1 [2] [%]	micronucleus frequency, CHO-K1 [1] [%]	relative survival, CHO-K1 [3]
concentration: 4.5 (µM), S9 metabolic activation: with S9, exposure time: 3-4 hours	0.1	1.52	135
concentration: 4.5 (µM), S9 metabolic activation: without S9, exposure time: 24 hours	0.7	1.84	119
concentration: 5.63 (µM), S9 metabolic activation: with S9, exposure time: 3-4 hours	0.28	1.72	91.4
concentration: 5.63 (µM), S9 metabolic activation: without S9, exposure time: 24 hours	0.64	2.22	111
concentration: 7.04 (µM), S9 metabolic activation: with S9, exposure time: 3-4 hours	0.2	2.06	112
concentration: 7.04 (µM), S9 metabolic activation: without S9, exposure time: 24 hours	0.8	2.64	108
concentration: 8.8 (µM), S9 metabolic activation: with S9, exposure time: 3-4 hours	0.34	2.84	94.1
concentration: 8.8 (µM), S9 metabolic activation: without S9, exposure time: 24 hours	1	3	110
concentration: 11 (µM), S9 metabolic activation: with S9, exposure time: 3-4 hours	0.28	2.48	117
concentration: 11 (µM), S9 metabolic activation: without S9, exposure time: 24 hours	0.98	3.32	101
concentration: 13.7 (µM), S9 metabolic activation: with S9, exposure time: 3-4 hours	0.38	2.16	93.2
concentration: 13.7 (µM), S9 metabolic activation: without S9, exposure time: 24 hours	0.68	2.56	103
concentration: 17.2 (µM), S9 metabolic activation: with S9, exposure time: 3-4 hours	0.38	2.68	99.3
concentration: 17.2 (µM), S9 metabolic activation: without S9, exposure time: 24 hours	1.06	3.5	103
concentration: 21.5 (µM), S9 metabolic activation: with S9, exposure time: 3-4 hours	0.2	1.7	100
concentration: 21.5 (µM), S9 metabolic activation: without S9, exposure time: 24 hours	1	3.7	98.5
concentration: 26.8 (µM), S9 metabolic activation: with S9, exposure time: 3-4 hours	0.26	2.16	82.8
concentration: 26.8 (µM), S9 metabolic activation: without S9, exposure time: 24 hours	0.92	1.6	78.7
concentration: 33.6 (µM), S9 metabolic activation: with S9, exposure time: 3-4 hours	0.2	2.04	88.1
concentration: 33.6 (µM), S9 metabolic activation: without S9, exposure time: 24 hours	0.96	2.42	82.9
concentration: 41.9 (µM), S9 metabolic activation: with S9, exposure time: 3-4 hours	0.16	1.26	70.5
concentration: 41.9 (µM), S9 metabolic activation: without S9, exposure time: 24 hours	0.76	2.34	89.8
concentration: 52.4 (µM), S9 metabolic activation: with S9, exposure time: 3-4 hours	0.3	1.88	74.3
concentration: 52.4 (µM), S9 metabolic activation: without S9, exposure time: 24 hours	0.94	3.94	103
concentration: 65.5 (µM), S9 metabolic activation: with S9, exposure time: 3-4 hours	0.2	2.22	67.2
concentration: 65.5 (µM), S9 metabolic activation: without S9, exposure time: 24 hours	1.04	3.14	82.9
concentration: 81.9 (µM), S9 metabolic activation: with S9, exposure time: 3-4 hours	0.34	2.16	56.3
concentration: 81.9 (µM), S9 metabolic activation: without S9, exposure time: 24 hours	1.48	2.66	79.6
concentration: 102 (µM), S9 metabolic activation: with S9, exposure time: 3-4 hours	0.22	2.04	87.8
concentration: 102 (µM), S9 metabolic activation: without S9, exposure time: 24 hours	2.28	3.52	76
concentration: 128 (µM), S9 metabolic activation: with S9, exposure time: 3-4 hours	0.4	2.52	76.7
concentration: 128 (µM), S9 metabolic activation: without S9, exposure time: 24 hours	10.4	2.62	60
concentration: 160 (µM), S9 metabolic activation: with S9, exposure time: 3-4 hours	0.4	1.86	75.7
concentration: 160 (µM), S9 metabolic activation: without S9, exposure time: 24 hours	2.92	4.76	59.3
concentration: 200 (µM), S9 metabolic activation: with S9, exposure time: 3-4 hours	0.32	1.62	90.9
concentration: 200 (µM), S9 metabolic activation: without S9, exposure time: 24 hours	–	–	32.5
